Data: the supplement of paper PMC4967469

Tests used:
Assay in all cases: Viability of human cancer cell lines after 72 h of drug (GDSC screen)
Bicalutamide = compound: CC(O)(CS(=O)(=O)c1ccc(F)cc1)C(=O)Nc1ccc(C#N)c(C(F)(F)F)c1 [Bicalutamide]; details: top dose inferred
Protocol: (§1)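 Human cancer cell lines in 384-well plates, medium with 10% serum, drug for 72 h over a 256-fold dose range (nine 2-fold or five 4-fold steps up to the top dose). Adherent lines were fixed and stained with the nucleic acid dye Syto60, suspension lines read with resazurin; signal relative to control wells, capped at 0 and 100%. One two-parameter sigmoid per drug and line, fitted in a mixed model over all curves with the slope shared within a line.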

KIN001-270 = compound: Cc1ccc(Nc2cc(-c3cccc(N4C(=O)c5ccccc5C4=O)c3)ncn2)cc1NS(C)(=O)=O [KIN001-270]; details: top dose 20 µM; top dose inferred
Protocol: as §1

Nilotinib = compound: Cc1cn(-c2cc(NC(=O)c3ccc(C)c(Nc4nccc(-c5cccnc5)n4)c3)cc(C(F)(F)F)c2)cn1 [Nilotinib]; details: top dose 2 µM
Protocol: as §1

Gemcitabine = compound: Nc1ccn([C@@H]2O[C@H](CO)[C@@H](O)C2(F)F)c(=O)n1 [Gemcitabine]; details: top dose 1.024 µM
Protocol: as §1

LFM-A13 = compound: C/C(O)=C(\C#N)C(=O)Nc1cc(Br)ccc1Br [LFM-A13]; details: top dose 16 µM; top dose inferred
Protocol: as §1

MP470 = compound: S=C(NCc1ccc2c(c1)OCO2)N1CCN(c2ncnc3c2oc2ccccc23)CC1 [MP470]; details: top dose 20 µM; top dose inferred
Protocol: as §1

T0901317 = compound: O=S(=O)(c1ccccc1)N(CC(F)(F)F)c1ccc(C(O)(C(F)(F)F)C(F)(F)F)cc1 [T0901317]; details: top dose 10.24 µM; top dose inferred
Protocol: as §1

TW-37 = compound: CC(C)c1ccccc1Cc1cc(C(=O)Nc2ccc(S(=O)(=O)c3ccccc3C(C)(C)C)cc2)c(O)c(O)c1O [TW-37]; details: top dose 5 µM
Protocol: as §1

AUY922 = compound: CCNC(=O)c1noc(-c2cc(C(C)C)c(O)cc2O)c1-c1ccc(CN2CCOCC2)cc1 [AUY922]; details: top dose 0.256 µM; top dose inferred
Protocol: as §1

GNF-2 = compound: NC(=O)c1cccc(-c2cc(Nc3ccc(OC(F)(F)F)cc3)ncn2)c1 [GNF-2]; details: top dose 1.28 µM; top dose inferred
Protocol: as §1

[1] = top dose 1.024 µM, screen: GDSC drug entry 150
[2] = top dose 10 µM, screen: GDSC drug entry 1502

| Cell Line | AUC (Bicalutamide; [1]) | IC50 (Bicalutamide; [1]) [nM] | AUC (Bicalutamide; [2]) | IC50 (Bicalutamide; [2]) [nM] | AUC (KIN001-270) | IC50 (KIN001-270) [nM] | AUC (Nilotinib) | IC50 (Nilotinib) [nM] | AUC (Gemcitabine) | IC50 (Gemcitabine) [nM] | AUC (LFM-A13) | IC50 (LFM-A13) [nM] | AUC (MP470) | IC50 (MP470) [nM] | AUC (T0901317) | IC50 (T0901317) [nM] | AUC (TW-37) | IC50 (TW-37) [nM] | AUC (AUY922) | IC50 (AUY922) [nM] | AUC (GNF-2) | IC50 (GNF-2) [nM] |
| --- | --- | --- | --- | --- | --- | --- | --- | --- | --- | --- | --- | --- | --- | --- | --- | --- | --- | --- | --- | --- | --- | --- |
| NALM-6 (B-cell leukaemia, suspension) | 0.982 | > 1020 | 0.979 | > 10000 | 0.932 | > 20000 | 0.983 | > 2000 | 0.063 | < 4 | 0.976 | > 16000 | 0.732 | 5020 | 0.889 | 8380 | 0.596 | 546 | 0.363 | 7.19 | 0.988 | > 1280 |
| NCI-H1770 (non-small cell lung carcinoma, suspension) | 0.992 | > 1020 | 0.99 | > 10000 | 0.987 | > 20000 | 0.987 | > 2000 | 0.518 | 71.4 | 0.988 | > 16000 | 0.933 | > 20000 | 0.991 | > 10200 | 0.461 | 248 | 0.733 | 66.7 | 0.992 | > 1280 |
| KE-37 (lymphoblastic leukaemia, suspension) | 0.994 | > 1020 | 0.991 | > 10000 | 0.98 | > 20000 | 0.991 | > 2000 | 0.089 | 4.91 | 0.966 | > 16000 | 0.935 | > 20000 | 0.931 | > 10200 | 0.504 | 320 | 0.403 | 9.24 | 0.994 | > 1280 |
| ES-2 (ovary, adherent) | 0.987 | > 1020 | 0.99 | > 10000 | 0.93 | > 20000 | 0.99 | > 2000 | 0.525 | 74.4 | 0.986 | > 16000 | 0.814 | 9310 | 0.977 | > 10200 | 0.47 | 262 | 0.784 | 95.3 | 0.991 | > 1280 |
| SR (lymphoid neoplasm, suspension) | 0.98 | > 1020 | 0.962 | > 10000 | 0.777 | 7210 | 0.978 | > 2000 | 0.14 | 5.66 | 0.925 | > 16000 | 0.852 | 13200 | 0.874 | 8270 | 0.614 | 620 | 0.43 | 10.5 | 0.985 | > 1280 |
| ML-2 (acute myeloid leukaemia, suspension) | 0.989 | > 1020 | 0.987 | > 10000 | 0.976 | > 20000 | 0.964 | > 2000 | 0.24 | 12.6 | 0.973 | > 16000 | 0.861 | 14000 | 0.904 | > 10200 | 0.695 | 1020 | 0.546 | 21.1 | 0.984 | > 1280 |
| SU-DHL-6 (B-cell lymphoma, suspension) | 0.989 | > 1020 | 0.995 | > 10000 | 0.912 | 15400 | 0.982 | > 2000 | 0.344 | 26.7 | 0.984 | > 16000 | 0.9 | 13800 | 0.958 | > 10200 | 0.373 | 153 | 0.567 | 23.2 | 0.995 | > 1280 |
| ES7 (Ewing sarcoma, adherent) | 0.975 | > 1020 | 0.971 | > 10000 | 0.898 | > 20000 | 0.947 | > 2000 | 0.27 | 13.9 | 0.91 | > 16000 | 0.822 | 12100 | 0.959 | > 10200 | 0.505 | 322 | 0.565 | 24.3 | 0.944 | > 1280 |
| CMK (acute myeloid leukaemia, suspension) | 0.991 | > 1020 | 0.978 | > 10000 | 0.918 | > 20000 | 0.991 | > 2000 | 0.118 | 5.15 | 0.99 | > 16000 | 0.932 | > 20000 | 0.89 | 8640 | 0.681 | 914 | 0.33 | 5.84 | 0.983 | > 1280 |
| DG-75 (Burkitt lymphoma, suspension) | 0.986 | > 1020 | 0.965 | > 10000 | 0.977 | > 20000 | 0.972 | > 2000 | 0.908 | > 1020 | 0.983 | > 16000 | 0.941 | > 20000 | 0.949 | > 10200 | 0.511 | 335 | 0.943 | > 256 | 0.987 | > 1280 |
| ES5 (Ewing sarcoma, adherent) | 0.983 | > 1020 | 0.97 | > 10000 | 0.939 | > 20000 | 0.939 | > 2000 | 0.551 | 89.8 | 0.954 | > 16000 | 0.907 | > 20000 | 0.967 | > 10200 | 0.549 | 433 | 0.673 | 52.5 | 0.982 | > 1280 |
| OPM-2 (myeloma, suspension) | 0.994 | > 1020 | 0.993 | > 10000 | 0.96 | > 20000 | 0.994 | > 2000 | 0.927 | > 1020 | 0.982 | > 16000 | 0.97 | > 20000 | 0.988 | > 10200 | 0.924 | > 5000 | 0.669 | 42.7 | 0.994 | > 1280 |
| HT (B-cell lymphoma, suspension) | 0.988 | > 1020 | 0.94 | > 10000 | 0.941 | > 20000 | 0.99 | > 2000 | 0.907 | > 1020 | 0.984 | > 16000 | 0.957 | > 20000 | 0.968 | > 10200 | 0.59 | 538 | 0.806 | 118 | 0.99 | > 1280 |
| AM-38 (glioma, semi-adherent) | 0.988 | > 1020 | 0.987 | > 10000 | 0.951 | > 20000 | 0.983 | > 2000 | 0.25 | 12 | 0.977 | > 16000 | 0.612 | 2560 | 0.975 | > 10200 | 0.668 | 927 | 0.473 | 13.5 | 0.988 | > 1280 |
| D-283MED (medulloblastoma, adherent) | 0.991 | > 1020 | 0.986 | > 10000 | 0.96 | > 20000 | 0.991 | > 2000 | 0.405 | 36.1 | 0.991 | > 16000 | 0.981 | > 20000 | 0.976 | > 10200 | 0.458 | 242 | 0.808 | 118 | 0.981 | > 1280 |
| JVM-3 (lymphoid neoplasm, suspension) | 0.987 | > 1020 | 0.966 | > 10000 | 0.984 | > 20000 | 0.912 | > 2000 | 0.984 | > 1020 | 0.987 | > 16000 | 0.824 | 12100 | 0.967 | > 10200 | 0.478 | 272 | 0.861 | 222 | 0.987 | > 1280 |
| LB831-BLC (bladder, adherent) | 0.984 | > 1020 | 0.985 | > 10000 | 0.845 | 14700 | 0.981 | > 2000 | 0.364 | 26.7 | 0.984 | > 16000 | 0.973 | > 20000 | 0.97 | > 10200 | 0.636 | – | 0.615 | 33.4 | 0.972 | > 1280 |
| EW-11 (Ewing sarcoma, adherent) | 0.974 | > 1020 | 0.909 | > 10000 | 0.959 | > 20000 | 0.961 | > 2000 | 0.68 | 237 | 0.902 | > 16000 | 0.964 | > 20000 | 0.981 | > 10200 | 0.587 | 580 | 0.681 | 60 | 0.98 | > 1280 |
| ES8 (Ewing sarcoma, adherent) | 0.987 | > 1020 | 0.984 | > 10000 | 0.925 | > 20000 | 0.982 | > 2000 | 0.127 | 4.77 | 0.959 | > 16000 | 0.953 | > 20000 | 0.986 | > 10200 | 0.378 | 148 | 0.615 | 32.3 | 0.987 | > 1280 |
| GRANTA-519 (B-cell lymphoma, suspension) | 0.986 | > 1020 | – | – | 0.976 | > 20000 | 0.974 | > 2000 | 0.355 | 26.6 | 0.991 | > 16000 | 0.936 | > 20000 | 0.964 | > 10200 | 0.574 | 486 | 0.843 | 154 | 0.991 | > 1280 |
| L-428 (Hodgkin lymphoma, suspension) | 0.993 | > 1020 | 0.992 | > 10000 | 0.992 | > 20000 | 0.993 | > 2000 | 0.437 | 44 | 0.981 | > 16000 | 0.948 | > 20000 | 0.968 | > 10200 | 0.747 | 1440 | 0.665 | 43.3 | 0.99 | > 1280 |

A lower IC50 marks a more sensitive line; fits outside the tested doses are given as limits. AUC is the area under the same curve over the 256-fold range up to the top dose, as a fraction; values near 1 show little effect. For part of these data: Where the top dose is marked as inferred, it comes from the curve model; the source does not state it. For part of these data: Drugs with an entry number were screened twice under separate entries, and the two screens often disagree.
